Measured values as given in paper PMC12136788.
Some of the results follow.

B1: 92727876_92727996_1082_3pUTR_ENSMUSG00000008398_ENSMUST00000008542|mouse|control|control (ssRNA)
RNA: GGGAGUUCUACAGUCCGACGAUCAGAGUCGGGGGACAGGGAUGGGGACCGAGAUGAAGAGGGUGACGCAGACGAAAUGCUGGCAGCAUUUGGCAACAUUAAAGAGGAGAUCUUGGCUGAGACAGACGAGGCCAGGAAAGCGGACAACAGAGGAUUGAGCAUCA
B2: chr10:28884852:28884853:+_ENSG00000095787_ENST00000354911|hu_mus|FALSE|FALSE (ssRNA)
RNA: GGGAGUUCUACAGUCCGACGAUCAGAUGCUCCAUUAGCAUCAAAUGAUUUCUUUGGCUGGUGAUCAGACUGAAGCGUAAAUGGACUAGAAGGAACAGUGCUUGGGGUAGCGGUUGGAUGAACCACUGGUUUGAUGGGGUGCUGCAACAGAGGAUUGAGCAUCA
B3: chr2:47387792:47387793:-_ENSG00000143933_ENST00000272298|hu_hu|hu_hu_hu_mus_True|1_1 (ssRNA)
RNA: GGGAGUUCUACAGUCCGACGAUCUAAGGACAAUGACAGUAAGAUAAGGGAAGAAAACAUGGAGGAAUGAAGUCCUAAUUACUAUACAUGCAUAUUUUUUGACAGUAGGGGGGGGGAACCUUUUACAGAUAAGUUACACAAAGACAACAGAGGAUUGAGCAUCA
B4: 160239141_160239261_4123_CDS_ENSG00000123636_ENST00000355831|human|control|control (ssRNA)
RNA: GGGAGUUCUACAGUCCGACGAUCCCCUUGGUCAUCACUGUCAUCGUCAUCAUCAUCGUCAUAAUCACUGUCUCCUCCCUUCCUUCUUCGCUUGCGUCCUGGAGUGGGUGUGCCCAAGGGAUGCUGCUCUUCUCCCAGAUCAAUCAACAGAGGAUUGAGCAUCA
B5: chr2:202488911:202488912:-_ENSG00000155755_ENST00000286196|hu_mus|hu_hu_hu_mus_False|48_88 (ssRNA)
RNA: GGGAGUUCUACAGUCCGACGAUCAUUGAAACAUUUUUCAUAAUCUCAGAGAUGUUUUCAGCAUUAUGUAACAAAAGCUCAAUUGUAAAUACACAUGUCUUAUAAAAAUACACUUAAAAACACGAGUGGGGAGCGCAGGCGCCACAACAGAGGAUUGAGCAUCA
B6: chr10:33214929:33214930:-_ENSG00000150093_ENST00000302278|hu_hu|FALSE|FALSE (ssRNA)
RNA: GGGAGUUCUACAGUCCGACGAUCAACAAGUUCAUUAAAUACUUCUCCUUUAUUAGUAAGACUGAGCACAUUUUUGUAGCUAAAUGGGCUGGUGCAGUUCUGUUCACUUGUGCAAGGGUUCCUGAGCUUAGCUGGUGUUGUGCUCAACAGAGGAUUGAGCAUCA
B7: chr12:97337435:97337436:+_ENSG00000139350_ENST00000266742|hu_hu|FALSE|FALSE (ssRNA)
RNA: GGGAGUUCUACAGUCCGACGAUCAGACUCAGCUGUUAGAUCACGGUUUUCAUUUUCCUCUUUCCCUGGAGAUCCCAUAAAAACAUUAAGAGGACUAGAAUGCAAUACUGAAGUACUUGAAGUUACUGGAUUUUUUCUUGGAGGCAACAGAGGAUUGAGCAUCA
B8: chr10:89103549:89103550:-_ENSMUSG00000069539_ENSMUST00000105294|mus_mus|motif|central (ssRNA)
RNA: GGGAGUUCUACAGUCCGACGAUCUAUCGGUUGGUCUCUGUUGAGGCUGCUUCACGCUAGCAGGAGGAAUAGUCAAAGGGCGGAAGUUUGACAUAGUGGGAGGUGCUCCCAGACUCAUGGUGGUCACGCCAGCUGUGCCCGUCCCAACAGAGGAUUGAGCAUCA
B9: 55182840_55182960_308_CDS_ENSG00000121057_ENST00000337714|human|control|control (ssRNA)
RNA: GGGAGUUCUACAGUCCGACGAUCAGCACCAGCCUCCACCUGCUGCUCAUCAUGGCUGCUGACAUGGCCUUUUUUACGAGAGAAAAACCACCACCAGCCGAGGAGCGCCAGCAUCCCAGGCAAUGCCAAGGGGAAGAGCGAACGCAACAGAGGAUUGAGCAUCA
B10: chr3:52726942:52726943:+_ENSG00000163938_ENST00000418458|hu_mus|FALSE|FALSE (ssRNA)
RNA: GGGAGUUCUACAGUCCGACGAUCCCGAAGGGCAAGUGCAGUGGGGGAGUUACAAGGUGAGAUAAUUAGGCAUGGACUGUCUAUGAUUGUGAUCUGCUUGUCUAAAGGGACAAUCUGCAUGCUCCUUGUAAGUCCCAUGGAAAUCAACAGAGGAUUGAGCAUCA
B11: chrX:117107323:117107324:-_ENSG00000003096_ENST00000371878|hu_hu|FALSE|FALSE (ssRNA)
RNA: GGGAGUUCUACAGUCCGACGAUCUUUGAGCUGCAACAAUACAAAUGGGAUAUAAACCUCAGCAUAGCCUUAGGCUACCGCUAAUAGAGAUCAGUGACUAAAUUCAGCAGCCUGCUUUCCUCCUGUGCAAGCUCUGGCCACACACAACAGAGGAUUGAGCAUCA
B12: chr5:118832277:118832278:+_ENSG00000133835_ENST00000256216|hu_mus|FALSE|FALSE (ssRNA)
RNA: GGGAGUUCUACAGUCCGACGAUCUGACGUGGCUGCAGGUGCCGCGUGACUGGUACGGUUUGGUGAGAUUCCUUCUGAAUCUACCUUAUGUAAAACUUCGACUAUACCACCUGUUGAUUCUUGAAUGGUCUGCGGCUUGCUGGCCAACAGAGGAUUGAGCAUCA
B13: chr10:22824096:22824097:-_ENSG00000150867_ENST00000376573|hu_hu|FALSE|FALSE (ssRNA)
RNA: GGGAGUUCUACAGUCCGACGAUCGAAAUAAAUGACAGACUGUUUGUUAUAGACAAAAAUAAAAGCAUUCUGUAAACUUCUAAAAGCAUACACAGAUUGGCCCCCAAGGAAACAGUUACUCAAAUAAUGUAUGUGUACCUUAUCCAACAGAGGAUUGAGCAUCA
B14: chr12:69233606:69233607:+_ENSG00000135679_ENST00000462284|hu_hu|motif|central (ssRNA)
RNA: GGGAGUUCUACAGUCCGACGAUCUCUAAAUUCCUAGGGUUAUAUAGUUAGAAAUAUAUAAUUCUCUUAUAGACAGGUCAACGGGGGGAAAUAAGUUAGCACAAUCAUUUGAAUUGGUUGUCUACAUACUGGGCAGGGCUUAUUCAACAGAGGAUUGAGCAUCA
B15: chr3:64004597:64004598:-_ENSG00000163636_ENST00000295901|hu_hu|FALSE|FALSE (ssRNA)
RNA: GGGAGUUCUACAGUCCGACGAUCAGUAUAAGUCACAAAUGUUUUAUAAUCCAUGAGUUCAUAGGAUGUAAAUGUUGAAACAGUGUCAAGGAAGAGUUCAGCUGCCUGUUUGAAAUCACGAAUAGCCACACAAUAAAGACCCUGCAACAGAGGAUUGAGCAUCA
B16: chr3:16083472:16083473:+_ENSMUSG00000047213_ENSMUST00000108345|mus_hu|motif|central (ssRNA)
RNA: GGGAGUUCUACAGUCCGACGAUCCGAACCGUUUUGUACUGAAACUUUAUUUCCUUGCCCUUUAGGUCUCUGAUCCACGCGGGUGGCUGACAUUCUUCACCGCAACCCGAGAGCCGCCGCCGCCGCCGCUGCCUGGGCCUCUCCCAACAGAGGAUUGAGCAUCA
B17: chr4:137866854:137866855:+_ENSMUSG00000028757_ENSMUST00000030538|mus_hu|motif|central (ssRNA)
RNA: GGGAGUUCUACAGUCCGACGAUCGUCAUCGCCAUCAAAGGGGACCCAUUUGCCAUUUGAGAGCUGCUGGAUCACGAUGCGGUACUCCACUAGGUCAGUGACAGUGUAGGCAUUGGGUGGGGCUGUCUCGCCCACCCGAUGAUGCAACAGAGGAUUGAGCAUCA
B18: chr17:65740002:65740003:+_ENSG00000130935_ENST00000581375|hu_hu|hu_hu_hu_mus_False|68_88 (ssRNA)
RNA: GGGAGUUCUACAGUCCGACGAUCAACAAAUCUUUCUUCCCUGGACGCAAGAGUUCAUUCAUAUUAACUUUAUAAAAUAUCCAUCAAGUUAGGUGUGGUGGCCACACCUUUACUCCCAGCACUUUGGGAGGUGGAUCUCUGAGUCAACAGAGGAUUGAGCAUCA
B19: chr1:36068893:36068894:-_ENSG00000126067_ENST00000373237|hu_hu|FALSE|FALSE (ssRNA)
RNA: GGGAGUUCUACAGUCCGACGAUCUCCCUGGCAAGUGGGAGGGAGGACAUGAUGUUAGGAGCCCUGUUUGGGGAAGGAAAUGUUAUCCAGGUCAUGGAUGCCAUUUUUGUCAAUGAUUCGAACACUGAAGGUUGGCAGAUUCAGCAACAGAGGAUUGAGCAUCA
B20: chr8:127197416:127197417:-_ENSMUSG00000037300_ENSMUST00000118134|mus_hu|FALSE|FALSE (ssRNA)
RNA: GGGAGUUCUACAGUCCGACGAUCUUUGGCGACUUUGCUAAAGGCCUCUGAACCAGGGGCUGUCAUAGCUUCAAAGUCGACUAACUUCCCUUUGGGAAUUUUUCCUGCUACUUCUUUUCCACUUGCCAUCAGUGCUCCCACGAUCAACAGAGGAUUGAGCAUCA
B21: chr9:78326885:78326886:-_ENSMUSG00000037742_ENSMUST00000042235|mus_mus|motif|central (ssRNA)
RNA: GGGAGUUCUACAGUCCGACGAUCCAGCUUCUUACCAGAACGACGAUCGAUCUUUUCUUUAAGCUCAGCAAACUUGCAUGCGGUGUGGGCUGUGUGACAAUCCAGAACAGGAGCGUAGCCAGCACUGAUUUGGCCUGGAUGGUUCAACAGAGGAUUGAGCAUCA
B22: chr9:128199989:128199990:-_ENSG00000119487_ENST00000373498|hu_hu|motif|central (ssRNA)
RNA: GGGAGUUCUACAGUCCGACGAUCUUUAAGAUGCUGUUUUAGACACAUCUCUUCCUGUACAACAAUUUAAAAAAUGUUUCGGAUGCAGGUCCUCAGUGAAACACCGGUCCCCGGCCCUGGCUGGGGACAGUAAGGACAUCACCGCAACAGAGGAUUGAGCAUCA

These binders were tested against T1, UNK ZnF1-3 (human, UniProt Q9C0B0 31-174) (assay: nsRBNS (natural sequence RNA bind-n-seq); RBNS binding buffer (assumed for nsRBNS): 25 mM Tris pH 7.5, 150 mM KCl, 3 mM MgCl2, 0.01% Triton X-100, 500 ug/ml BSA, 20 U/ml SUPERase-In, 4 C; UNK is unkempt and MSI1 is Musashi-1; names of the RNAs are library labels; protein concentration not given here; high values mean tight binding).
T1 sequence: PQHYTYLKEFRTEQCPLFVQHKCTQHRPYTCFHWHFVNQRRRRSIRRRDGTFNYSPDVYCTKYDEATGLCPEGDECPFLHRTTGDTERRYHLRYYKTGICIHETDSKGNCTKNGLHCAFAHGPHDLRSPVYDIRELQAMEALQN

Binder | binding signal
B1 | 2.16 enrichment R
B2 | 1.23 enrichment R
B3 | 2.2 enrichment R
B4 | 0.678 enrichment R
B5 | 0.866 enrichment R
B6 | 1.1 enrichment R
B7 | 1.47 enrichment R
B8 | 0.821 enrichment R
B9 | 1.43 enrichment R
B10 | 0.799 enrichment R
B11 | 0.866 enrichment R
B12 | 0.572 enrichment R
B13 | 1.15 enrichment R
B14 | 2 enrichment R
B15 | 1.37 enrichment R
B16 | 0.635 enrichment R
B17 | 0.888 enrichment R
B18 | 0.774 enrichment R
B19 | 1.39 enrichment R
B20 | 0.522 enrichment R
B21 | 1.07 enrichment R
B22 | 0.542 enrichment R
